Assay [1] addresses T1, Human FGFR4 ECD (human, UniProt P22455 22-369).
T1 construct: whole entry is the construct; also called FGFR4 D1-D3 construct
The experiment in a line: SPR (Biacore). As to the method: (§1) Subsequently, 0.078-100 nM of FGFR receptors, diluted in a 2-fold series, were injected at a flow rate of 80 μl/min for 7 min over both reference and test flow cells. Dissociation of the binding was followed for 10 min using HBS-EP⁺ supplemented with 0.5 mg/ml of BSA and 10 μg/ml heparin as running buffer. After each injection cycle, the chip surface was regenerated with 10 mM glycine, pH 2.0 at 60 μl/min for 70 s.
Background: Surface plasmon resonance follows binding to a sensor surface in real time, without labels.

Assay [2] deals with T2, Mouse FGFR4 (mouse, UniProt Q03142 17-366).
T2 construct: Recombinant tagged ECD
The experiment in a line: SPR (Biacore). As to the method:
as §1

For assay [3], the target named is T3, Rat FGFR4 (rat, UniProt Q498D6 17-367).
T3 construct: Recombinant tagged ECD
The experiment in a line: SPR (Biacore). As to the method:
as §1

The target in assay [4] is T4, Cynomolgus monkey FGFR4 (cynomolgus monkey).
T4 chain: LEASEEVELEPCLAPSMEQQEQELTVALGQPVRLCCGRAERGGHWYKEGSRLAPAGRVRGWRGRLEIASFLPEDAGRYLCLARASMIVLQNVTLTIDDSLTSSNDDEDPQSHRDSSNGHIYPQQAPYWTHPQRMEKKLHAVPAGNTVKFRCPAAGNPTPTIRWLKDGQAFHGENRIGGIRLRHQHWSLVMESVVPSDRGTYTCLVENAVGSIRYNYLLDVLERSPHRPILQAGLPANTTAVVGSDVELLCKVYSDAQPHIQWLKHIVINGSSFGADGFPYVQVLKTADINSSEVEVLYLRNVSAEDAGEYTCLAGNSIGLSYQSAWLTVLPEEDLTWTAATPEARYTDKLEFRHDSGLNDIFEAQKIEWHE
The experiment in a line: SPR (Biacore). The method, then:
as §1

The target of assay [5] is T1, Human FGFR4 ECD. The experiment in a line: SPR (Biacore), antibody captured, FGFR ECD as analyte. The method, then:
The immobilization level and analyte interactions were measured by response unit (RU).
as §1

T2 sequence (Q03142 17-366 limits assumed): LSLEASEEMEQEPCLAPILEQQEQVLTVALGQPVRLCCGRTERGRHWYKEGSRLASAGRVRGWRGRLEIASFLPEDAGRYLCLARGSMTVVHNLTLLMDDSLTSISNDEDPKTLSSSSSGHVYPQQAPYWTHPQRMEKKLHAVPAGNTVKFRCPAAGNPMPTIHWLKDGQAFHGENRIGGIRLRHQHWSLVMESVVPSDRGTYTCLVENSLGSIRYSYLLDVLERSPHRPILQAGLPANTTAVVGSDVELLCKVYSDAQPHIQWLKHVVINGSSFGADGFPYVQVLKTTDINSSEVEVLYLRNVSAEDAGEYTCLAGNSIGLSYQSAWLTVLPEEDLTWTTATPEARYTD
T3 sequence (Q498D6 17-367 limits assumed): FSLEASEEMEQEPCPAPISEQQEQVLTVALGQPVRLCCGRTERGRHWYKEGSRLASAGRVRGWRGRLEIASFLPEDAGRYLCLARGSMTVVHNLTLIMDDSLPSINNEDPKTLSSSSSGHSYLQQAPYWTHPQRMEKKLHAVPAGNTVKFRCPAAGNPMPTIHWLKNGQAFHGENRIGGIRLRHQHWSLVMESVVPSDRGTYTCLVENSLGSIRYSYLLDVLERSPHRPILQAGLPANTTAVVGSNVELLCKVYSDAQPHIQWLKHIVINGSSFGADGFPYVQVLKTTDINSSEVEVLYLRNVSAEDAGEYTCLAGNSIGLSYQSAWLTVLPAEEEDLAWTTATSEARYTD

B1: mAb 12425 (antibody, human IgG1, kappa)
heavy: QVQLLESGGGLVQPGGSLRLSCAASGFTFSDYAMSWVRQAPGKGLEWVSVIEGDGSYTHYADSVKGRFTISRDNSKNTLYLQMNSLRAEDTAVYYCAREKTYSSAFDYWGQGTLVTVSSASTKGPSVFPLAPSSKSTSGGTAALGCLVKDYFPEPVTVSWNSGALTSGVHTFPAVLQSSGLYSLSSVVTVPSSSLGTQTYICNVNHKPSNTKVDKRV[in this place human IgG1 Fc]
light: DIQMTQSPSSLSASVGDRVTITCRASQDISSDLNWYQQKPGKAPKLLIYDASNLQSGVPSRFSGSGSGTDFTLTISSLQPEDFAVYYCQQHYSPSHTFGQGTKVEIKRTVAAPSVFIFPPSDEQLKSGTASVVCLLNNFYPREAKVQWKVDNALQSGNSQESVTEQDSKDSTYSLSSTLTLSKADYEKHKVYACEVTHQGLSSPVTKSFNRGEC
notes: also called MOR12425
As to B1, the Kd (usually the free concentration of one partner at which half of the binding sites on the other are occupied at equilibrium, for simple one-to-one binding) in assay [1] came out at 4 nM; in assay [2] it was 3.6 nM; in assay [3], 5.2 nM; in assay [4] it was 2.3 nM; in assay [5], 3.9 nM.

B2: 12425-MCC-DM1 (antibody, human IgG1, kappa)
heavy: B1 heavy
light: B1 light
modifications: DM1 on lysine residues via MCC linker (sites not specified)
For B2, the Kd in assay [1] amounted to 4.6 nM; in assay [2], 2.2 nM; in assay [3], 4.2 nM; in assay [4], 2.1 nM.

The record behind these values is patent US20140301946A1 (Novartis, published 2014).
